{
  "source": "PubChem BioAssay AID1030",
  "about": "(National Center for Advancing Translational Sciences (NCATS), 2008)",
  "note": "Among all 220,000 compounds or so, about 16,000 (7.3%) were called active. Inconclusive results, whose numbers are uncertain, are shown with a selection of clear calls. Calls come from the whole dose curve; as a rule, active = well fitted inhibition curve with a large enough effect (not every such curve was filed as active); inconclusive = small, poorly fitted or top-dose-only effect, or another doubt; inactive = no such curve, though single readings can be large or run the other way. Potencies of inconclusive entries are left out as doubtful fits. Potency is the fitted concentration of half-maximal effect; tags give direction and shape of the fitted curve.",
  "data": [
    {"target": "Aldehyde dehydrogenase 1A1 (Homo sapiens) (UniProt P00352)", "sequence (P00352 whole entry, looked up)": "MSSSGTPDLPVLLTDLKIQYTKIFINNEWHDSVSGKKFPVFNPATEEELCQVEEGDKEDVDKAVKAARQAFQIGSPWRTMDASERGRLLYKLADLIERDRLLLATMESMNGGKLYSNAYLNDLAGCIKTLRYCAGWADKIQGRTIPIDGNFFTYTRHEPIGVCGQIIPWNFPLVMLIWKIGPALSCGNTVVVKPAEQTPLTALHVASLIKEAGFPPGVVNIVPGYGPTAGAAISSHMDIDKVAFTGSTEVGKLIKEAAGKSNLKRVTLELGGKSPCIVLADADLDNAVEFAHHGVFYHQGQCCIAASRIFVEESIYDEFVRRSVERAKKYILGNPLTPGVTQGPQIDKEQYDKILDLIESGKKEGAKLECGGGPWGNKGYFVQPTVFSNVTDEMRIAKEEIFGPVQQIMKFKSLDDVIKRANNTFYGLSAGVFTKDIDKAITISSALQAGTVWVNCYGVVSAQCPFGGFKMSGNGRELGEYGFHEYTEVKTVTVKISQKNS", "assay": "qHTS Assay for Inhibitors of Aldehyde Dehydrogenase 1 (ALDH1A1);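 for activity, negative = inhibition: plate controls were no enzyme wells and a reference inhibitor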", "details": "Purified ALDH1A1, NADH fluorescence, propionaldehyde substrate; series mostly up to 75.3 µM", "values": [
      {"smiles": "CCOc1ccc(CC(=NCCO)C2=C(O)CC(C)(C)CC2=O)cc1OCC", "Potency": "inconclusive [inhibitor, single point]"},
      {"smiles": "N#Cc1c(N)n(CCCN2CCOCC2)c2nc3ccccc3nc12", "Potency": "inconclusive [inhibitor, partial curve]"},
      {"smiles": "COc1ccc(N(C(=O)c2ccco2)S(=O)(=O)c2ccccc2)cc1", "Potency": "inconclusive [inhibitor, partial curve]"},
      {"smiles": "Cc1nc(Cl)cc(CS(=O)(=O)c2ccc(Cl)cc2)n1", "Potency": "active: 20 µM"},
      {"smiles": "Cc1nn(Cc2ccccc2)c(C)c1NC(=O)CSc1nnc(-c2cc(Cl)ccc2O)n1C", "Potency": "inconclusive [inhibitor, single point]"},
      {"smiles": "COc1cc(C(=O)N(Cc2ccco2)Cc2cc3ccccc3[nH]c2=O)cc(OC)c1OC", "Potency": "active: 22.4 µM"},
      {"smiles": "COc1ccc(C2=CC(=O)OC3(CCCC3)O2)cc1", "Potency": "active: 12.6 µM"},
      {"smiles": "Cc1oc(-c2ccccc2)cc1C(=O)Nc1ccc(N(C)C)cc1", "Potency": "inconclusive [inhibitor, single point]"},
      {"smiles": "S=C1NCCc2ccccc2C1c1ccccc1", "note": "(centres undefined)", "Potency": "inactive"},
      {"smiles": "CC(=O)c1c(N2CCN(C)CC2)nc(=S)n(-c2cc(C)ccc2C)c1C", "Potency": "inactive"},
      {"smiles": "CSc1nsc(SCC(=O)N2CCCCC2)n1", "Potency": "inactive"},
      {"smiles": "O=C(c1cc2ccccn2n1)N1CCN(c2ccccn2)CC1", "Potency": "inconclusive [inhibitor, single point]"},
      {"smiles": "COC(=O)C1=C(C)N(c2ccc(F)c(Cl)c2)C(=O)C1", "Potency": "inconclusive [inhibitor, single point]"},
      {"smiles": "Cc1ccccc1-n1nnnc1SC(C)C(=O)NC1CCCc2ccccc21", "note": "(centres undefined)", "Potency": "active: 4.47 µM"},
      {"smiles": "CO[C@H]1COC(=O)[C@@H](C)COC(=O)[C@@H](Cc2ccccc2)NC(=O)C/C=C\\[C@H]1C", "activity, negative = inhibition": "inactive: 3.78% [at 13.5 µM]"},
      {"smiles": "NC(=S)Nc1cnc2ccccc2c1", "Potency": "inactive"},
      {"smiles": "CC1CN(C(=O)C2(C)CC2(Cl)Cl)CC(C)O1", "note": "(centres undefined)", "Potency": "inactive"},
      {"smiles": "O=C1/C(=C/c2ccccc2)N=C(N2CCOCC2)N1c1cccc(Cl)c1", "Potency": "inconclusive [inhibitor, partial curve]"},
      {"smiles": "CCOC(=O)CCN1C(=O)[C@H]2[C@H]3[C@H](O)[C@H](O)C/C(=N/NC(=O)OCc4ccc(OC)cc4)[C@H]3CC[C@@H]2C1=O", "activity, negative = inhibition": "inactive: -4.8% [at 13.5 µM]"},
      {"smiles": "COc1cc(/C=N/Nc2ccccc2)ccc1OC(=O)c1cccs1", "Potency": "inconclusive [inhibitor, single point]"},
      {"smiles": "O=C(O)c1ccc(C(=O)O)c(C(=O)O)c1.[NH-][C@@H]1CCCC[C@@H]1[NH-].[Pt]", "activity, negative = inhibition": "inactive: -7.97% [at 13.5 µM]"},
      {"smiles": "CCN1CCc2c(sc(N)c2C(N)=O)C1", "Potency": "inconclusive [inhibitor, single point]"},
      {"smiles": "N#C/C(=C\\c1ccncc1)c1nc2ccccc2c(=O)[nH]1", "Potency": "active: 7.94 µM"},
      {"smiles": "COc1ccccc1-c1c(C)oc2cc(OC(=O)c3ccco3)ccc2c1=O", "Potency": "inactive"},
      {"smiles": "Cc1cc[n+](CC(=O)c2cccs2)cc1", "Potency": "inactive"},
      {"smiles": "CCOc1ccc(C(=O)CCN2CCCCC2)cc1", "Potency": "active: 0.0158 µM"},
      {"smiles": "Cc1ccc(CSc2nnc(Nc3ccc(C)cc3)s2)cc1", "Potency": "inconclusive [inhibitor, single point]"},
      {"smiles": "C[Se]CCC(N)C(=O)O", "note": "(centres undefined)", "Potency": "inconclusive [inhibitor, single point]"},
      {"smiles": "CCOc1ccc(OCc2cccc(C(=O)N/N=C/c3cccnc3)c2)cc1", "Potency": "inactive"},
      {"smiles": "CCC(C)c1ccc(OCCn2cc(/C=N/NC(=O)CSc3nnc(C)s3)c3ccccc32)cc1", "note": "(centres undefined)", "Potency": "inconclusive [inhibitor, single point]"},
      {"smiles": "COc1ccc(OC)c(C2NC(=O)c3sc(=S)n(-c4ccccc4)c3N2)c1", "note": "(centres undefined)", "Potency": "inconclusive [inhibitor, partial curve]"},
      {"smiles": "Cc1c(N2C(=O)CS/C2=N\\N=C\\c2ccc(Br)cc2)c(=O)n(-c2ccccc2)n1C", "Potency": "inactive"},
      {"smiles": "COc1ccc2[nH]c(=O)c(CN(Cc3nnnn3CCc3ccccc3)CC3CCCO3)cc2c1", "note": "(centres undefined)", "Potency": "inconclusive [inhibitor, single point]"},
      {"smiles": "Cc1cccc(C)c1N=C1SC(CC(=O)Nc2c(C)cccc2C)C(=O)N1CCc1ccccn1", "note": "(centres undefined)", "Potency": "inactive"},
      {"smiles": "CCCCCCC(=O)Nc1cc2c(C)cc(=O)oc2cc1C", "Potency": "active: 5.01 µM"},
      {"smiles": "NC(=O)c1cc2cc([N+](=O)[O-])ccc2oc1=O", "Potency": "inactive"},
      {"smiles": "Cc1ccc(CSCCNC(=O)c2ccc(C)cc2)cc1", "Potency": "inconclusive [inhibitor, single point]"},
      {"smiles": "Nc1nnc(SCn2nnc3ccccc3c2=O)s1", "Potency": "inconclusive [inhibitor, single point]"},
      {"smiles": "Cc1ccc(C(=O)N/N=C/c2ccc(S(=O)(=O)O)o2)c(Cl)c1", "Potency": "inactive"},
      {"smiles": "C=CCn1c(SCC(=O)c2cccs2)nc2sc(C)cc2c1=O", "Potency": "active: 11.2 µM"},
      {"smiles": "COC(=O)c1ccc(NC(=O)c2ccccc2N(C)S(=O)(=O)c2ccccc2)cc1", "Potency": "inconclusive [inhibitor, single point]"},
      {"smiles": "CC1(C)OC1COc1c2ccoc2cc2oc(=O)ccc12", "note": "(centres undefined)", "Potency": "inconclusive [inhibitor, single point]"},
      {"smiles": "Clc1ccc(SCc2nc3ccccc3[nH]2)cc1", "Potency": "inactive"},
      {"smiles": "O=C(Nc1ccc(-c2ccc3nncn3n2)cc1)c1ccc(Br)o1", "Potency": "inconclusive [inhibitor, single point]"},
      {"smiles": "COc1ccc(S(=O)(=O)Cc2ccc(C(=O)NCc3ccco3)o2)cc1", "Potency": "inconclusive [inhibitor, single point]"},
      {"smiles": "CCOC(=O)N1CCN(C(=O)C2CCN(S(=O)(=O)c3ccc(F)cc3)CC2)CC1", "Potency": "inconclusive [inhibitor, single point]"},
      {"smiles": "COC(=O)C(C)NC(=O)CNS(=O)(=O)c1ccc(F)cc1", "note": "(centres undefined)", "Potency": "inactive"},
      {"smiles": "CCCCOc1ccc(N(CC(=O)NC(C)C)C(=O)CCC(=O)Nc2ccccn2)cc1", "Potency": "inactive"},
      {"smiles": "CCCCOC(=O)n1c(=S)oc2cc(Cl)ccc21", "Potency": "inconclusive [inhibitor, single point]"},
      {"smiles": "CC(=O)NS(=O)(=O)c1ccc(NC(=O)/C=C/c2ccc(C)o2)cc1", "Potency": "active: 12.6 µM"},
      {"smiles": "COc1ccc(Cc2nnc(NC(=O)C(C)(C)C)s2)cc1", "Potency": "inactive"},
      {"smiles": "CCOC(=O)CC(=O)CSc1ccc2nnc(-c3cccc(F)c3)n2n1", "Potency": "inconclusive [inhibitor, single point]"},
      {"smiles": "COc1ccc(C2/C(=C(/O)c3ccccc3)C(=O)C(=O)N2c2ccccn2)c(OC)c1", "note": "(centres undefined)", "Potency": "inconclusive [inhibitor, single point]"},
      {"smiles": "CCCCNC(=O)c1cc2c(=O)n3cccc(C)c3nc2n(Cc2ccccc2)c1=N", "Potency": "inconclusive [inhibitor, partial curve]"},
      {"smiles": "CN1CCN(c2nc3c(c(=O)n(C)c(=O)n3C)n2C)CC1", "activity, negative = inhibition": "inactive: -7% [at 13.5 µM]"},
      {"smiles": "CC(=O)Nc1ccc(NC(=O)c2ccccc2Sc2ccc([N+](=O)[O-])cc2Cl)cc1", "Potency": "inconclusive [inhibitor, full curve]"},
      {"smiles": "CCc1cccc(C)c1NC(=S)NCc1cccn1C", "Potency": "active: 14.1 µM"},
      {"smiles": "CCN(CC)c1ccc(S(=O)(=O)N2CCOCC2)cc1NC(=O)CSc1cccc[n+]1[O-]", "Potency": "inconclusive [inhibitor, single point]"},
      {"smiles": "CCCCOC(=O)c1ccc(NC(=O)C(=O)NCC2CCCO2)cc1", "note": "(centres undefined)", "Potency": "inconclusive [inhibitor, partial curve]"},
      {"smiles": "Cn1nnc(NC(=O)c2ccc([N+](=O)[O-])cc2Cl)n1", "Potency": "inconclusive [inhibitor, full curve, poor fit]"},
      {"smiles": "COC(=O)CC(=O)CSc1nc2c(cc1C#N)CCC2", "Potency": "inconclusive [inhibitor, single point]"},
      {"smiles": "O=C(CSc1nc2nc(-c3cccs3)cc(C(F)(F)F)c2c(=O)[nH]1)Nc1ccc(F)c(F)c1", "Potency": "inconclusive [inhibitor, single point]"},
      {"smiles": "CCOC(=O)c1c(NC(=O)CC)sc(C(=O)N2CCCCC2)c1C", "Potency": "inconclusive [inhibitor, single point]"},
      {"smiles": "CCOCCCNC(=S)N(Cc1ccco1)Cc1cc2cc3c(cc2[nH]c1=O)OCCO3", "Potency": "inconclusive [inhibitor, single point]"},
      {"smiles": "NNC1=N[C@H]2CS(=O)(=O)C[C@H]2S1", "Potency": "inactive"},
      {"smiles": "COc1cccc(C(=O)Nc2cc(-c3cn4cccnc4n3)ccc2C)c1", "Potency": "inconclusive [inhibitor, partial curve]"},
      {"smiles": "Cc1csc(SCc2nc3scc(-c4ccccc4)c3c(=O)[nH]2)n1", "Potency": "inconclusive [inhibitor, single point]"},
      {"smiles": "CCOC(=O)c1cc2c(ccn2-c2ccc(F)cc2)n1CC(=O)NC(C)(C)C", "Potency": "inconclusive [inhibitor, single point]"},
      {"smiles": "COc1cccc(OC)c1C(=O)OCC(=O)NC(=O)NCc1ccccc1", "Potency": "inactive"},
      {"smiles": "COc1ccc(/C=C\\C(=O)NCc2ccc3[nH]c(C)cc3c2)cc1OC", "Potency": "inconclusive [inhibitor, single point]"},
      {"smiles": "CN(C)c1ccc(NC(=O)CN2C(=O)CC(c3ccccc3)=Nc3ccccc32)cc1", "Potency": "inactive"},
      {"smiles": "CCOC(=O)c1ccccc1N/C=C1\\CCCC1=O", "Potency": "inconclusive [inhibitor, partial curve]"},
      {"smiles": "CC12CCC(C(=O)N3CCC(Cc4ccccc4)CC3)(C(=O)C1=O)C2(C)C", "note": "(centres undefined)", "Potency": "inconclusive [inhibitor, partial curve]"},
      {"smiles": "Cc1ccc(C(=O)NCC(=O)N2CCN(c3ncccn3)CC2)s1", "Potency": "inconclusive [inhibitor, partial curve]"}
    ]}
  ]
}
